Test results reported in the supplement of paper PMC12217912.
The other results are listed elsewhere or left out. The full chains were built here from the parent and the listed change. Inactive controls read about 0.05.

B1: TEV protease; numbered along this chain (parent)
chain: MGESLFKGPRDYNPISSSICHLTNESDGHTTSLYGIGFGPFIITNKHLFRRNNGTLVVQSLHGVFKVKDTTTLQQHLVDGRDMIIIRMPKDFPPFPQKLKFREPQREERICLVTTNFQTKSMSSMVSDTSCTFPSGDGIFWKHWIQTKDGQCGSPLVSTRDGFIVGIHSASNFTNTNNYFTSVPKNFMELLTNQEAQQWVSGWRLNADSVLWGGHKVFMVKPEEPFQPVKEATQL

Variants of: B1
Assay: raw area under fraction-flipped curve 0-4 h after induction (AUC4h, not background-subtracted), DNA-recorder readout of cleavage of the substrate (dimensionless); higher = more cleavage of the substrate by the protease variant
Details: temperature: 34 °C; time window: 0-4 h after rhamnose induction
Procedure: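 In vivo DNA recorder in E. coli TOP10(DE3) ΔrhaA at 34 °C. Each TEVp single-site mutant (parent TEVp 0) is paired with a single-site variant of the 7-mer TEVs (canonical ENLYFQ|S). The substrate sits between flexible linkers in a Bxb1-sfGFP-TEVs-SsrA fusion, so cleavage stabilises Bxb1 and speeds flipping of a recombination array, read by NGS. The value is the raw area under the fraction-flipped curve over 0-4 h after rhamnose induction (AUC4h), with ≥20 reads per time point. It is not background-subtracted; inactive controls average about 0.047.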
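Further: Bxb1 expression induced with 0.2% (w/v) L-rhamnose at OD600 near 0.5, cultures sampled hourly, flipped fraction per protease–substrate barcode pair counted by paired-end Illumina sequencing.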

Row | Variant | area with substrate ENLYCQS | area with substrate ENLYDQS | area with substrate ENLYEQS | area with substrate ENLYGQS | area with substrate ENLYHQS | area with substrate ENLYIQS | area with substrate ENLYKQS | area with substrate ENLYLQS | area with substrate ENLYMQS | area with substrate ENLYNQS | area with substrate ENLYPQS | area with substrate ENLYQQS | area with substrate ENLYSQS | area with substrate ENLYVQS | area with substrate ENLYWQS | area with substrate ENLYRQS | area with substrate ENLYTQS | area with substrate ENLYYQS
1 | MGESLFKGPRDYNPISSSICHLTNESDGHTTSLYGIGFGPFIITNKHLFRRNNGTLVVQSLHGVFKVKDTTTLQQHLVDGRDMIIIRMPKDFPPFPQKLKFREPQREERICLVTTNFQTKSMSSMVSDTSCTFPSGDGIFWKHWIQTKDGQCGSPLVSTRDGFIVGIHSASNFTNTNNYFTSVPKNFMELLTNQEAQQWVSGWRLNADSVLWGGHKVFMVKPEEPFMPVKEATQL [Q227M] | 0.0887 | 0.0436 | 0.0701 | 0.069 | 0.0694 | 0.108 | 0.0603 | 0.0934 | 0.0847 | 0.0605 | 0.0771 | 0.0931 | 0.0853 | – | – | – | – | –
2 | MGESLFKGPRDYNPISSSICHLTNESDGHTTSLYGIGFGPFIITNKHLFRRNNGILVVQSLHGVFKVKDTTTLQQHLVDGRDMIIIRMPKDFPPFPQKLKFREPQREERICLVTTNFQTKSMSSMVSDTSCTFPSGDGIFWKHWIQTKDGQCGSPLVSTRDGFIVGIHSASNFTNTNNYFTSVPKNFMELLTNQEAQQWVSGWRLNADSVLWGGHKVFMVKPEEPFQPVKEATQL [T55I] | 0.0859 | – | – | – | 0.0756 | 0.121 | 0.0707 | 0.0649 | 0.0763 | – | – | – | 0.0892 | 0.0988 | 0.0802 | – | – | –
3 | MGESLFKGPRDYNPISSSICHLTNESDGHTTSLYGIGFGPFIITNKHLFRRNNGTLVVQSLHGVFKVKDTTTLQQHLVDGRDMIIIRMPKDFPPFPQKLKFREPQREERICLVTTNFQTKSMSSMVSDTSCTFPSGDGIFWKHWIQTKDGQCGSPLVSTRDGFIVGIHSASNFTNTNNYFTSVPKNFMELLTNQEAQQWVSGWRLNADSVLWGGHKVFMVKPEEPFQPVKEATQM [L235M] | 0.105 | 0.0652 | 0.0582 | 0.0706 | 0.0569 | 0.12 | 0.0652 | 0.0857 | – | 0.0624 | 0.0507 | 0.0737 | – | 0 | 0.0883 | 0.068 | 0.0785 | 0.0656
4 | MGESLFKGPRDYNPISSSICHLTNESDGHTTSLYGIGFGPFIITNKHLFRRNNGTLVVQSLHGVFKVKDTTTLQQHLVDGRDMIIIRMPKDFPDFPQKLKFREPQREERICLVTTNFQTKSMSSMVSDTSCTFPSGDGIFWKHWIQTKDGQCGSPLVSTRDGFIVGIHSASNFTNTNNYFTSVPKNFMELLTNQEAQQWVSGWRLNADSVLWGGHKVFMVKPEEPFQPVKEATQL [P94D] | 0.091 | 0.0563 | – | 0.106 | 0.0702 | 0.116 | 0.0413 | 0.0858 | 0.0887 | – | – | 0.0643 | 0.112 | – | 0.115 | 0.0896 | – | 0.0939
5 | MGESLFKGPRDYNPISSSICHLTNESDGHTTSLYGIGFGPFIITNKHLFRRNGGTLVVQSLHGVFKVKDTTTLQQHLVDGRDMIIIRMPKDFPPFPQKLKFREPQREERICLVTTNFQTKSMSSMVSDTSCTFPSGDGIFWKHWIQTKDGQCGSPLVSTRDGFIVGIHSASNFTNTNNYFTSVPKNFMELLTNQEAQQWVSGWRLNADSVLWGGHKVFMVKPEEPFQPVKEATQL [N53G] | 0.0882 | 0.0656 | 0.0605 | 0.0646 | 0.0633 | 0.0853 | 0.0692 | 0.0739 | 0.0729 | 0.0584 | 0.0693 | 0.0512 | 0.0707 | 0.0953 | – | – | 0.0811 | 0.042
6 | MGESLFKGPRDYNPISSSICHLTNESDGHTTSLYGIGFGPFIITNKHLFRRNNGTLVVQSLHGVFKVKDTTTLQQHLVDGRDMIIIRMPKDFPPFPQKLKFREPQREERICLVTTNFQTKSMSSMVSDTSCTFPSGDGIFWKHWIQTKDGQCGSPLVSTRDGFIVGIHSASNFTNTNNYFTSVPKNFMELLTNQEAQQWVSSWRLNADSVLWGGHKVFMVKPEEPFQPVKEATQL [G202S] | 0.0581 | 0.0505 | 0.0629 | 0.0591 | – | 0.0722 | 0.0776 | – | 0.0667 | 0.0805 | 0.0738 | 0.0622 | – | 0.0725 | 0.0859 | – | 0.0741 | –
7 | MGESLFKGPRDYNPISSSICHLTNESDGHTTSLYGIGFGPFIITNKHLFRRNNGTLVVQSLHGVFKVKDTTTLQQHLVDGRDMIIIRMPKDFPPFPQKLKFREPQREERICLVTTNFHTKSMSSMVSDTSCTFPSGDGIFWKHWIQTKDGQCGSPLVSTRDGFIVGIHSASNFTNTNNYFTSVPKNFMELLTNQEAQQWVSGWRLNADSVLWGGHKVFMVKPEEPFQPVKEATQL [Q118H] | 0.0805 | 0.0677 | – | – | – | 0.127 | 0.0419 | 0.0781 | 0.0995 | – | 0.0706 | – | 0.0685 | 0.0684 | – | – | 0.0758 | 0.0627
8 | MGESLFKGPRDYNPISSSICHLTNESDGHTTSLYGIGFGPFIITNKHLFRRNNGTLVVQSLHGVFKVKDTTTLQQHLVDGRDMIKIRMPKDFPPFPQKLKFREPQREERICLVTTNFQTKSMSSMVSDTSCTFPSGDGIFWKHWIQTKDGQCGSPLVSTRDGFIVGIHSASNFTNTNNYFTSVPKNFMELLTNQEAQQWVSGWRLNADSVLWGGHKVFMVKPEEPFQPVKEATQL [I85K] | 0.0592 | 0.0552 | 0.0547 | 0.0452 | 0.0636 | 0.0318 | 0.0372 | – | 0.0579 | 0.0542 | 0.0623 | 0.0583 | – | – | – | 0.0574 | – | –
9 | MGESLFKGPRDYNPISSSICHLTNESDGHTTNLYGIGFGPFIITNKHLFRRNNGTLVVQSLHGVFKVKDTTTLQQHLVDGRDMIIIRMPKDFPPFPQKLKFREPQREERICLVTTNFQTKSMSSMVSDTSCTFPSGDGIFWKHWIQTKDGQCGSPLVSTRDGFIVGIHSASNFTNTNNYFTSVPKNFMELLTNQEAQQWVSGWRLNADSVLWGGHKVFMVKPEEPFQPVKEATQL [S32N] | 0.094 | 0.0641 | 0.0489 | 0.0689 | 0.0658 | – | – | – | 0.089 | – | 0.0777 | 0.0503 | 0.0755 | 0.128 | 0.0708 | – | 0.0703 | –
